Data reported in PubChem BioAssay AID485367 (National Center for Advancing Translational Sciences (NCATS), 2010).
Among all 330,000 compounds or so, about 560 (0.17%) were called active. The shares of active, inactive and inconclusive entries below differ from those in the screen. Calls follow the shape of the dose curve; as a rule, active = well fitted inhibition curve with a large enough effect; inconclusive = small, poorly fitted or top-dose-only effect, or effect the other way; inactive = flat fitted curve, though single readings scatter. Potencies of inconclusive entries are left out as doubtful fits.

What follows are compounds tested against ATP-dependent 6-phosphofructokinase (Trypanosoma brucei brucei) (UniProt O15648) (assay: qHTS Assay to Find Inhibitors of T. brucei phosphofructokinase). Settings: T. brucei PFK, ADP-Glo luminescence; activity, negative = inhibition: at 57.5 µM (top of the series).
Procedure, shortened: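 Luminescent ADP detection (ADP-Glo, two-step: ATP depletion then ADP-to-ATP conversion for luciferase) reported PFK activity after 45 min room-temperature reaction of 1.25 nM enzyme with 0.5 mM F6P and 0.1 mM ATP at pH 8.0.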
Also: nearly all actives have a fitted effect of over 60% in size.
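For activity, negative = inhibition in this document: 0% = uninhibited 1x PFK enzyme wells and -100% = no-enzyme wells.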
Potency is read from the fitted curve at half-maximal effect; tags tell the direction and shape of the fitted curve.

UniProt O15648, sequence (O15648 whole entry, looked up): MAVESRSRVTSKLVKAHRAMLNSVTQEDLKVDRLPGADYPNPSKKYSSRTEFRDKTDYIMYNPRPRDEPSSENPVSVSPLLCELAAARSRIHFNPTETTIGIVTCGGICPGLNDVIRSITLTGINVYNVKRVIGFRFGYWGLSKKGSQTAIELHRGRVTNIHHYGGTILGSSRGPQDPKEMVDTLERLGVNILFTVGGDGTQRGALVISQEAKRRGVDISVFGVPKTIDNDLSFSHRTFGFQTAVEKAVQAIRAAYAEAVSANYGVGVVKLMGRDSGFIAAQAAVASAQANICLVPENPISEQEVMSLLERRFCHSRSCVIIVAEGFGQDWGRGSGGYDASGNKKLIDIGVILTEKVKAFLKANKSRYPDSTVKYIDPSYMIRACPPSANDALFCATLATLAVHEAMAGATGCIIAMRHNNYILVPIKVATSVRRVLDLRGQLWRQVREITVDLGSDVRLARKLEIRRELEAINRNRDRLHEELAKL

Structure (SMILES) | Potency | activity, negative = inhibition
Cc1ccc(S(=O)(=O)Nc2c(Cl)c(Cl)c(O)c3ccccc23)cc1 | active: 15.1 µM | 
C=CCn1c(SCC(=O)NC(=O)NCc2ccco2)nc2sc(CC)cc2c1=O | inconclusive [falling, partial curve] | 
O=C(Nc1nc2ccccc2[nH]1)c1ccc(Cl)cc1 |  | inactive: -4.8%
O=C(CCC(=O)c1cccs1)Nc1ccc(N2CCCCC2)cc1 |  | inactive: 2.22%
COc1ccccc1OCC(=O)NN1Cc2ccccc2C1=N | inconclusive [falling, single point] | 
Cc1ccc(C(=O)CCNc2ccc(F)c(Cl)c2)o1 | inconclusive [falling, single point] | 
Cc1cccc(OCC(=O)Nc2ccc(S(=O)(=O)Nc3ccccn3)cc2)c1 | inconclusive [falling, single point] | 
COC(=O)c1ccc(COc2ccc(/C=C/C(=O)c3ccc(OC)c(CSCC(=O)O)c3)cc2OC)cc1 | active: 4.78 µM | 
COC(=O)c1ccccc1NC(=O)c1ccccc1OC |  | inactive: -4.26%
Nc1c(C(=O)O)cnc2c(-c3ccc(Cl)cc3)cnn12 |  | inactive: -2.01%
Cc1cccn2c(=O)c3cc(C(=O)NC4CCCCC4)c(=N)n(CCN4CCOCC4)c3nc12 |  | inactive: 4.53%
O=C(COc1ccccc1)Nc1nnc(S(=O)(=O)N2CCCC2)s1 |  | inactive: -13.9%
Cc1cc(C)c(NC(=S)NCC2CCN(C(C)c3ccccc3)C2)c(C)c1 (stereo not drawn) | inconclusive [falling, partial curve] | 
Cc1cccc(C)c1NC(=O)CN1CCN(C(=O)c2ccc(OCc3cn4ccccc4n3)cc2)CC1 | inconclusive [falling, single point] | 
Cc1c(C(=O)OC2CCCC2)[nH]c2c1C(=O)CC(c1ccco1)C2 (stereo not drawn) | inconclusive [falling, single point] | 
O=C(CSc1ccc2nnc(-c3ccc(F)cc3)n2n1)NCC1CCCO1 (stereo not drawn) |  | inactive: -2.16%
Cc1ccc(NC2Sc3ccccc3NC2=O)cc1 (stereo not drawn) | inconclusive [falling, full curve] | 
COc1cc(NC(=O)c2cnc(N)s2)cc(C(=O)Nc2cccc(C(F)(F)F)c2)c1 | inconclusive [falling, partial curve] | 
CCN(CC)c1ccc(/C=C2\C(=O)N(c3nnc(C)c(=O)[nH]3)N=C2C)cc1 | inconclusive [falling, partial curve] | 
CCNc1nc(NCC)n2c(SCC(=O)Nc3cccc(F)c3)nnc2n1 | inconclusive [falling, single point] | 
O=C1OC2(c3ccccc31)c1cc(I)c(O)c(I)c1Oc1c2cc(I)c(O)c1I | inconclusive [activator, single point] | 
O=C(COC(=O)c1cccc(Br)c1)NCc1ccco1 | inconclusive [falling, partial curve] | 
NS(=O)(=O)c1ccc(CCNC(=O)c2ccc3nccnc3c2)cc1 | inconclusive [falling, full curve, poor fit] | 

Structure (SMILES) | Potency | activity, negative = inhibition
COCCN(C(=O)COC(=O)Cc1coc2cc3c(cc12)CCC3)c1c(N)n(Cc2ccccc2)c(=O)[nH]c1=O | inconclusive [falling, single point] | 
O=C(COC(=O)CNC(=O)c1ccc(Cl)c([N+](=O)[O-])c1)NNC(=O)c1cccs1 |  | inactive: 0.602%
CCOC(=O)C1CCCCN1C(=O)c1oc2c(Cl)cc(C)cc2c1C (stereo not drawn) | inconclusive [falling, single point] | 
COc1ccc(NC(=O)c2ccc(NC(=O)CSc3nc(N)cc(=O)[nH]3)cc2)cc1 | inconclusive [falling, single point] | 
COc1ccc(C2=NCCn3nc4cc([N+](=O)[O-])ccc4c32)cc1 | inconclusive [falling, partial curve] | 
C=Cc1c(C)c2cc3[nH]c(cc4nc(cc5nc(cc1[nH]2)C(C)=C5CCC(=O)O)C(CCC(=O)O)=C4C)c(C)c3C=C | inconclusive [falling, single point] | 
CCOc1ccc(C(=O)c2cc3ccc(O)cc3oc2=O)cc1 |  | inactive: -2.93%
COc1ccc(NC(=O)CN2CCN(CC(=O)Nc3ccc(OC)cc3)CC2)cc1 |  | inactive: 3%
CC(=O)Nc1ccc(S(=O)(=O)/N=C2/NC(=O)/C(=C\c3ccco3)S2)cc1 | inconclusive [falling, single point] | 
Cc1cccc(C2Nc3ccccc3C(=O)N2c2ccccc2)n1 (stereo not drawn) | inconclusive [falling, single point] | 
O=C(/C=C/c1ccc(Br)o1)OCc1nc2ccsc2c(=O)[nH]1 | inconclusive [falling, full curve] | 
COC(=O)c1ccccc1NC(=O)CCS(=O)(=O)c1ccc(Br)cc1 | inconclusive [falling, partial curve] | 
Nc1ccn(Cc2cccc(Cl)c2)n1 | active: 26.9 µM | 
COc1ccc(/C=C2\SC(=O)N(CC(=O)NNC(=O)c3ccccc3O)C2=O)cc1OC | inconclusive [falling, single point] | 
COc1ccc(-c2cc(=O)c3cc(O)ccc3o2)cc1 | inconclusive [falling, full curve, poor fit] | 
O=C1/C(=C/c2ccc(F)c(F)c2)CSc2sccc21 | inconclusive [falling, single point] | 
CC(C)(C)C1=C(C#N)C(c2cccnc2)C(C#N)=C(N)O1 (stereo not drawn) | inconclusive [activator, single point] | 
Cc1cccnc1NC(=O)CNC(=O)C12CC3CC(CC(C3)C1)C2 | inconclusive [falling, single point] | 
O=C(COc1ccccc1[N+](=O)[O-])N/N=C/c1ccc(O)c([N+](=O)[O-])c1 | inconclusive [activator, partial curve] | 
Cn1c(=O)c(C(=O)NNC(=O)c2cccc(Cl)c2)c(O)c2ccccc21 | inconclusive [activator, full curve] | 
COc1ccc([C@@H]2CC(=O)c3c(O)cc(O[C@@H]4O[C@H](CO[C@@H]5O[C@@H](C)[C@H](O)[C@@H](O)[C@H]5O)[C@@H](O)[C@H](O)[C@H]4O)cc3O2)cc1O | inconclusive [falling, single point] | 
COc1ccc(OC)c(/C=C/C(=O)N(C)CC(=O)Nc2ccc(N3CCOCC3)cc2)c1 |  | inactive: 5.69%
C=CCn1c(SC(C)C(=O)NCc2ccc3c(c2)OCO3)nc2scc(-c3ccccc3)c2c1=O (stereo not drawn) |  | inactive: 15.9%

Structure (SMILES) | Potency | activity, negative = inhibition
COc1ccc(OC)c(NC(=O)COC(=O)c2cc3c(s2)CCC3)c1 | inconclusive [falling, full curve] | 
O=C(N/N=C/C1C(c2ccccc2)C1(Cl)Cl)c1cccc(Br)c1 (stereo not drawn) |  | inactive: -3.97%
COC(=O)c1cc(NC(=O)Cc2cccs2)cc(C(=O)OC)c1 | inconclusive [falling, single point] | 
CC(=O)c1c(C)nc(-c2ccc(Cl)cc2)nc1N | inconclusive [falling, partial curve] | 
Cc1cc(NS(=O)(=O)c2ccc(NC(=O)COc3ccccc3C(C)(C)C)cc2)no1 |  | inactive: -11.2%
O=C(O)Cn1c(SCCOc2ccc(Cl)cc2)nc2ccccc21 |  | inactive: -1.29%
CC(=O)c1ccc(S(=O)(=O)N2CCn3cccc3C2C)cc1 (stereo not drawn) | inconclusive [falling, single point] | 
O=C(CCN1C(=O)C2C3C=CC(C3)C2C1=O)Nc1nccs1 (stereo not drawn) |  | inactive: 1.86%
CC(=O)NC1=NN(C(C)=O)C(C)(c2ccccc2)S1 (stereo not drawn) | inconclusive [falling, partial curve] | 
CC(C)Cn1c(N)c(C(=O)COC(=O)C2Cc3ccccc3CN2S(C)(=O)=O)c(=O)n(C)c1=O (stereo not drawn) |  | inactive: -19.3%
O=C(Nc1cnn(Cc2ccc(Cl)cc2)c1)c1cnccn1 | inconclusive [falling, partial curve, poor fit] | 
Cc1noc2ncnc(N3CCN(c4cccc(Cl)c4)CC3)c12 | inconclusive [falling, single point] | 
CC(=O)Nc1ccc(S(=O)(=O)NC(CSc2ccc(C(=O)O)cc2[N+](=O)[O-])C(=O)O)cc1 (stereo not drawn) | inconclusive [activator, partial curve] | 
O=C(N/N=C\c1ccc(OC(=O)c2cccs2)cc1)c1ccc(Cl)cc1 | inconclusive [falling, full curve] | 
CCOc1ccccc1/C=N/NC(=O)c1c(C)nc2ccc(Br)cn12 |  | inactive: 11.7%
N#C/C(=C\c1ccc(-c2ccc([N+](=O)[O-])cc2Br)o1)C(=O)N1CCN(c2ccccc2)CC1 | inconclusive [falling, single point] | 
CC1C=CC(C)C(C(=O)O)C1C(=O)O (stereo not drawn) | inconclusive [falling, partial curve] | 
O=C(N/N=C/c1ccc[nH]1)c1sc2ccccc2c1Cl | inconclusive [activator, single point] | 
O=C(Nc1ccc(Oc2nnc(-c3ccccc3)c3ccccc23)cc1)c1ccccc1 |  | inactive: -1.55%
O=C(COc1ccc([N+](=O)[O-])cc1)Nc1ccc2c(c1)OCO2 | inconclusive [falling, partial curve] | 
CCOC(=O)c1c(C)[nH]c(C(=O)COC(=O)COc2ccc(OC)cc2)c1C | inconclusive [falling, single point] | 
C[C@]12CCC(=O)C=C1[C@H](O)C[C@@H]1[C@@H]2[C@@H](O)C[C@@]2(C)[C@H]1CC[C@]2(O)C(=O)CO | inconclusive [activator, single point] | 
